Results published in PMC4336329 (PLoS ONE, 2015).
The whole screen tested about 310,000 compounds, of which about 2,200 (0.71%) showed an effect of 50% or more. Effects have a minus sign here. This is one part of the list.

The compounds below were run against human ether-à-go-go-related gene (hERG) potassium channel (human, UniProt Q12809) (assay: primary screen, population patch clamp on CHO cells stably expressing hERG).
human ether-à-go-go-related gene (hERG) potassium channel, sequence (Q12809 whole entry, looked up): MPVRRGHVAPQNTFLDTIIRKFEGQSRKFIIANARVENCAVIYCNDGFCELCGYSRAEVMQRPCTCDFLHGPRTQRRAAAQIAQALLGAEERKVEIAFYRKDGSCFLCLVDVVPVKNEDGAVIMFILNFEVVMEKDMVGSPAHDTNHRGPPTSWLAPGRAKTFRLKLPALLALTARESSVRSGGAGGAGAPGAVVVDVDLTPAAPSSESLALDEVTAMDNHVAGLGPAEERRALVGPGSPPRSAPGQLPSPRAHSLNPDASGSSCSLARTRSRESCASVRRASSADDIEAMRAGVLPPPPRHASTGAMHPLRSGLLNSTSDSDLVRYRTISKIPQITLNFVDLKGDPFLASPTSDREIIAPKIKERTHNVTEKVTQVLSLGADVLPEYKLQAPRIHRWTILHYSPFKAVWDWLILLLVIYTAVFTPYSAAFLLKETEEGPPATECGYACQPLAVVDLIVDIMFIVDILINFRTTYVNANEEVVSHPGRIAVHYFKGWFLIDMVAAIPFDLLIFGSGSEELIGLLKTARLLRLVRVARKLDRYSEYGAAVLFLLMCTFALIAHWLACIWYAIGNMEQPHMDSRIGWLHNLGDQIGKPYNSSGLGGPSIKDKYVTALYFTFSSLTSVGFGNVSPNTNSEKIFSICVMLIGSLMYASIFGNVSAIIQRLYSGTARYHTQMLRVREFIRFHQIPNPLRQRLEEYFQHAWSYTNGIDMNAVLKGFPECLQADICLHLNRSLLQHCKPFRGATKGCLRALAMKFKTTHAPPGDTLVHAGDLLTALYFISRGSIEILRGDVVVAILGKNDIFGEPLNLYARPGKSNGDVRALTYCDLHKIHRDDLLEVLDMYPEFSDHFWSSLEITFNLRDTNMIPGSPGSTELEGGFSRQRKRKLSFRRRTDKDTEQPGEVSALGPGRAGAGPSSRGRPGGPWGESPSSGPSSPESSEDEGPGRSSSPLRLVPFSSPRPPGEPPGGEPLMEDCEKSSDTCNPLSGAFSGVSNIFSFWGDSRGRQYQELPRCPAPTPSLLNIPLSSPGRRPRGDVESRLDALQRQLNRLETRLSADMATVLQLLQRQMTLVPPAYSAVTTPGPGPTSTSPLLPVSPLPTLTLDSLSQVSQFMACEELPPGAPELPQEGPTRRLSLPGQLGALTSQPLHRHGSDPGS
With CNC(=O)COC(=O)/C=C/c1cn(-c2ccccc2)nc1-c1ccc(C)o1 the “hERG current change (%, negative = inhibition) at 1uM” value was 6.58%.
For Cc1nc2ccc(NC(=O)c3oc4ccc(F)cc4c3C)cc2s1, the “hERG current change (%, negative = inhibition) at 1uM” value was 12.4%.
For CCOc1ccc(N(CC(=O)NN=C2CCN(C)CC2)S(C)(=O)=O)cc1, the “hERG current change (%, negative = inhibition) at 1uM” value was 7.5%.
With COc1ccc(CNC(=O)Cn2cc([N+](=O)[O-])cn2)cc1 the “hERG current change (%, negative = inhibition) at 1uM” value was 17.8%.
In the case of CC(=O)Nc1ccc(S(=O)(=O)NCC2CCC(C(=O)N3CCCCC3)CC2)cc1 (stereo not drawn), the “hERG current change (%, negative = inhibition) at 1uM” value is reported as 13.7%.
For CCc1ccc(NS(=O)(=O)c2c(C)noc2C)cc1, the “hERG current change (%, negative = inhibition) at 1uM” value was 3.96%.
With COC(=O)C1=C(c2ccc(OC(F)(F)F)cc2)C[C@@H]2CC[C@H]1N2C(=O)N1CCCC1 the “hERG current change (%, negative = inhibition) at 1uM” value was 5.49%.
O=[N+]([O-])c1c(Nc2ccccn2)cc(Cl)c2nonc12 was tested, and the “hERG current change (%, negative = inhibition) at 1uM” value was 13.4%.
With C#CCOc1ccc(C2C3=C(CCCC3=O)N(CC(=O)O)C3=C2C(=O)CCC3)cc1Br the “hERG current change (%, negative = inhibition) at 1uM” value was 17.8%.
In the case of CCC1c2ccc(C)n2CCN1C(=O)Nc1cc(Cl)ccc1OC (stereo not drawn), the “hERG current change (%, negative = inhibition) at 1uM” value is reported as 3.07%.
For CC(C)(O)c1cc(=O)sc2nc3ccccc3n12, the “hERG current change (%, negative = inhibition) at 1uM” value was -3.9%.
With CCc1ccccc1NC(=O)CN(C)C(=O)CSc1nnc(Nc2cccc(C)c2)s1 the “hERG current change (%, negative = inhibition) at 1uM” value was 1.69%.
CCOC(=O)c1c(C)n(C)c2c(C)cc(O)c(OC(C)=O)c12 was tested, and the “hERG current change (%, negative = inhibition) at 1uM” value was 8.89%.
For O=C(CN1CCOCC1)NC1CC2CCC1C2 (stereo not drawn), the “hERG current change (%, negative = inhibition) at 1uM” value was 5.06%.
In the case of COc1ccccc1-n1c(Cc2ccccc2)nc2ccccc2c1=O, the “hERG current change (%, negative = inhibition) at 1uM” value is reported as 6.65%.
In the case of CC1(C)Cc2c(sc(NC(=O)c3ccco3)c2C(=O)O)CO1, the “hERG current change (%, negative = inhibition) at 1uM” value is reported as 4.83%.
CS(=O)(=O)c1ccc(C(=O)NC2CCOC2=O)cc1 (stereo not drawn) was tested, and the “hERG current change (%, negative = inhibition) at 1uM” value was -3.22%.
With CC(C)(C)c1cc(C(=O)Nc2cccnc2)cc(C(=O)Nc2cccnc2)c1 the “hERG current change (%, negative = inhibition) at 1uM” value was 4.84%.
In the case of CC(=O)NC(Cc1ccc(N(CCCl)CCCl)cc1)C(=O)NC(CC(C)C)C(=O)O (stereo not drawn), the “hERG current change (%, negative = inhibition) at 1uM” value is reported as 2.39%.
In the case of NC(N)=N/N=C/c1ccc2cccc(OCc3ccccc3)c2n1, the “hERG current change (%, negative = inhibition) at 1uM” value is reported as -1.5%.
In the case of CC(NC(=O)c1ccc(Cl)cc1)c1nnc(SCC(=O)NC2=NCCS2)n1C (stereo not drawn), the “hERG current change (%, negative = inhibition) at 1uM” value is reported as 17.6%.
In the case of Cc1ccc(Nc2nc(N)nc(CN3CCN(Cc4ccc5c(c4)OCO5)CC3)n2)c(C)c1, the “hERG current change (%, negative = inhibition) at 1uM” value is reported as -70.5%.
With COC(=O)C1C(=O)CC(C)(O)C(C(=O)OC)C1c1ccc2c(c1)OCO2 (stereo not drawn) the “hERG current change (%, negative = inhibition) at 1uM” value was 15.5%.
With Cc1ccc(NC(=O)CN(C)C(=O)COC(=O)C(C)(C)Oc2ccc(Cl)cc2)cc1 the “hERG current change (%, negative = inhibition) at 1uM” value was 1.48%.
